From the supplement of paper PMC8728848
Some of the results follow.

Experiments:
Assay in all cases: glycan array binding signal (z-score within array); higher = stronger binding
Settings in all cases: glycan notation: IUPAC condensed, linker removed
Neu5Ac(a2-3)GalNAc = target: Neu5Ac(a2-3)GalNAc
Method in brief: (§1)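 Glycan array binding is given as a within-array Z-score, which can be read as non-binding when negative. The arrays, 3228 of them, came from the Consortium for Functional Glycomics database and were retained only where the protein sequence was available. Z-scores were averaged across arrays of the same protein sequence at different concentrations or buffers and across linkers.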

[1] = target: Neu5Ac(a2-3)GalNAc(b1-4)GlcNAc
Method in brief: as §1

[2] = target: Neu5Ac(a2-3)[GalNAc(b1-4)]Gal(b1-4)Glc
Method in brief: as §1

[3] = target: Neu5Ac(a2-3)[GalNAc(b1-4)]Gal(b1-4)GlcNAc
Method in brief: as §1

[4] = target: Neu5Ac(a2-3)[GalNAc(b1-4)]Gal(b1-4)GlcNAc(b1-3)GalNAc
Method in brief: as §1

[5] = target: Neu5Ac(a2-3)[Neu5Ac(a2-6)]GalNAc
Method in brief: as §1

Neu5Ac(a2-6)Gal = target: Neu5Ac(a2-6)Gal
Method in brief: as §1

[6] = target: Neu5Ac(a2-6)Gal(b1-3)GlcNAc(b1-3)[Gal(b1-4)GlcNAc(b1-6)]Gal(b1-4)Glc
Method in brief: as §1

Neu5Ac(a2-6)Gal(b1-4)Glc = target: Neu5Ac(a2-6)Gal(b1-4)Glc
Method in brief: as §1

[7] = target: Neu5Ac(a2-6)Gal(b1-4)GlcNAc
Method in brief: as §1

[8] = target: Neu5Ac(a2-6)Gal(b1-4)GlcNAc(b1-2)Man
Method in brief: as §1

[9] = target: Neu5Ac(a2-6)Gal(b1-4)GlcNAc(b1-2)Man(a1-3)Man(b1-4)GlcNAc(b1-4)GlcNAc
Method in brief: as §1

[10] = target: Neu5Ac(a2-6)Gal(b1-4)GlcNAc(b1-2)Man(a1-3)[Gal(b1-4)GlcNAc(b1-2)Man(a1-6)]Man(b1-4)GlcNAc(b1-4)GlcNAc
Method in brief: as §1

[11] = target: Neu5Ac(a2-6)Gal(b1-4)GlcNAc(b1-2)Man(a1-3)[GlcNAc(b1-2)Man(a1-6)]Man(b1-4)GlcNAc(b1-4)GlcNAc
Method in brief: as §1

[12] = target: Neu5Ac(a2-6)Gal(b1-4)GlcNAc(b1-2)Man(a1-3)[GlcNAc(b1-4)][Neu5Ac(a2-6)Gal(b1-4)GlcNAc(b1-2)Man(a1-6)]Man(b1-4)GlcNAc(b1-4)GlcNAc
Method in brief: as §1

[13] = target: Neu5Ac(a2-6)Gal(b1-4)GlcNAc(b1-2)Man(a1-3)[Man(a1-6)]Man(b1-4)GlcNAc(b1-4)GlcNAc
Method in brief: as §1

[14] = target: Neu5Ac(a2-6)Gal(b1-4)GlcNAc(b1-2)Man(a1-3)[Neu5Ac(a2-3)Gal(b1-4)GlcNAc(b1-2)Man(a1-6)]Man(b1-4)GlcNAc(b1-4)GlcNAc
Method in brief: as §1

[15] = target: Neu5Ac(a2-6)Gal(b1-4)GlcNAc(b1-2)Man(a1-3)[Neu5Ac(a2-6)Gal(b1-4)GlcNAc(b1-2)Man(a1-6)]Man(b1-4)GlcNAc(b1-4)GlcNAc
Method in brief: as §1

[16] = target: Neu5Ac(a2-6)Gal(b1-4)GlcNAc(b1-2)Man(a1-3)[Neu5Ac(a2-6)Gal(b1-4)GlcNAc(b1-2)Man(a1-6)]Man(b1-4)GlcNAc(b1-4)[Fuc(a1-6)]GlcNAc
Method in brief: as §1

[17] = target: Neu5Ac(a2-6)Gal(b1-4)GlcNAc(b1-2)Man(a1-6)Man(b1-4)GlcNAc(b1-4)GlcNAc
Method in brief: as §1

[18] = target: Neu5Ac(a2-6)Gal(b1-4)GlcNAc(b1-2)Man(a1-6)[Gal(b1-4)GlcNAc(b1-2)Man(a1-3)]Man(b1-4)GlcNAc(b1-4)GlcNAc
Method in brief: as §1

[19] = target: Neu5Ac(a2-6)Gal(b1-4)GlcNAc(b1-2)Man(a1-6)[GlcNAc(b1-2)Man(a1-3)]Man(b1-4)GlcNAc(b1-4)GlcNAc
Method in brief: as §1

[20] = target: Neu5Ac(a2-6)Gal(b1-4)GlcNAc(b1-2)Man(a1-6)[Man(a1-3)]Man(b1-4)GlcNAc(b1-4)GlcNAc
Method in brief: as §1

[21] = target: Neu5Ac(a2-6)Gal(b1-4)GlcNAc(b1-2)[Neu5Ac(a2-6)Gal(b1-4)GlcNAc(b1-4)]Man(a1-3)[GlcNAc(b1-4)][Neu5Ac(a2-6)Gal(b1-4)GlcNAc(b1-2)[Neu5Ac(a2-6)Gal(b1-4)GlcNAc(b1-6)]Man(a1-6)]Man(b1-4)GlcNAc(b1-4)GlcNAc
Method in brief: as §1

[22] = target: Neu5Ac(a2-6)Gal(b1-4)GlcNAc(b1-2)[Neu5Ac(a2-6)Gal(b1-4)GlcNAc(b1-4)]Man(a1-3)[GlcNAc(b1-4)][Neu5Ac(a2-6)Gal(b1-4)GlcNAc(b1-4)Man(a1-6)]Man(b1-4)GlcNAc(b1-4)GlcNAc
Method in brief: as §1

[23] = target: Neu5Ac(a2-6)Gal(b1-4)GlcNAc(b1-2)[Neu5Ac(a2-6)Gal(b1-4)GlcNAc(b1-6)]Man(a1-6)[Neu5Ac(a2-6)Gal(b1-4)GlcNAc(b1-2)Man(a1-3)][GlcNAc(b1-4)]Man(b1-4)GlcNAc(b1-4)GlcNAc
Method in brief: as §1

[24] = target: Neu5Ac(a2-6)Gal(b1-4)GlcNAc(b1-3)Gal(b1-3)GlcNAc
Method in brief: as §1

[25] = target: Neu5Ac(a2-6)Gal(b1-4)GlcNAc(b1-3)Gal(b1-4)GlcNAc
Method in brief: as §1

[26] = target: Neu5Ac(a2-6)Gal(b1-4)GlcNAc(b1-3)Gal(b1-4)GlcNAc(b1-2)Man(a1-3)[Neu5Ac(a2-6)Gal(b1-4)GlcNAc(b1-3)Gal(b1-4)GlcNAc(b1-2)Man(a1-6)]GalNAc
Method in brief: as §1

[27] = target: Neu5Ac(a2-6)Gal(b1-4)GlcNAc(b1-3)Gal(b1-4)GlcNAc(b1-3)Gal(b1-4)GlcNAc
Method in brief: as §1

[28] = target: Neu5Ac(a2-6)Gal(b1-4)GlcNAc(b1-3)Gal(b1-4)GlcNAc(b1-3)Gal(b1-4)GlcNAc(b1-2)Man(a1-3)[Neu5Ac(a2-6)Gal(b1-4)GlcNAc(b1-3)Gal(b1-4)GlcNAc(b1-3)Gal(b1-4)GlcNAc(b1-2)Man(a1-6)]GalNAc
Method in brief: as §1

[29] = target: Neu5Ac(a2-6)Gal(b1-4)GlcNAc(b1-3)Gal(b1-4)GlcNAc(b1-3)GalNAc
Method in brief: as §1

[30] = target: Neu5Ac(a2-6)Gal(b1-4)GlcNAc(b1-3)Gal(b1-4)GlcNAc(b1-3)[Neu5Ac(a2-6)Gal(b1-4)GlcNAc(b1-3)Gal(b1-4)GlcNAc(b1-6)]GalNAc
Method in brief: as §1

[31] = target: Neu5Ac(a2-6)Gal(b1-4)GlcNAc(b1-3)Gal(b1-4)GlcNAc(b1-6)[Gal(b1-3)]GalNAc
Method in brief: as §1

[32] = target: Neu5Ac(a2-6)Gal(b1-4)GlcNAc(b1-3)Gal(b1-4)[Fuc(a1-3)]GlcNAc(b1-3)Gal(b1-4)[Fuc(a1-3)]GlcNAc
Method in brief: as §1

[33] = target: Neu5Ac(a2-6)Gal(b1-4)GlcNAc(b1-3)GalNAc
Method in brief: as §1

[34] = target: Neu5Ac(a2-6)Gal(b1-4)GlcNAc(b1-3)[Neu5Ac(a2-6)Gal(b1-4)GlcNAc(b1-6)]GalNAc
Method in brief: as §1

[35] = target: Neu5Ac(a2-6)Gal(b1-4)GlcNAc(b1-6)GalNAc
Method in brief: as §1

[36] = target: Neu5Ac(a2-6)Gal(b1-4)GlcNAc(b1-6)[Gal(b1-3)GlcNAc(b1-3)]Gal(b1-4)Glc
Method in brief: as §1

[37] = target: Neu5Ac(a2-6)Gal(b1-4)GlcNAc(b1-6)[Gal(b1-3)]GalNAc
Method in brief: as §1

[38] = target: Neu5Ac(a2-6)Gal(b1-4)GlcNAc6S
Method in brief: as §1

Neu5Ac(a2-6)GalNAc = target: Neu5Ac(a2-6)GalNAc
Method in brief: as §1

[39] = target: Neu5Ac(a2-6)GalNAc(b1-4)GlcNAc
Method in brief: as §1

[40] = target: Neu5Ac(a2-6)GalNAc(b1-4)GlcNAc6S
Method in brief: as §1

[41] = target: Neu5Ac(a2-6)GlcNAc(b1-4)GlcNAc
Method in brief: as §1

B1: Cohesin-hDECTIN-1 (Homo sapiens) (protein)
chain: LDITSHHHHHHDDLDAVRIKVDTVNAKPGDTVRIPVRFSGIPSKGIANCDFVYSYDPNVLEIIEIEPGDIIVDPNPDKSFDTAVYPDRKIIVFLFAEDSGTGAYAITKDGVFATIVAKVKEGAPNGLSVIKFVEVGGFANNDLVEQKTQFFDGGVNVGDTTEPATPTTPVTTPTTTDDLDAASSSPCPPNWIIYEKSCYLFSMSLNSWDGSKRQCWQLGSNLLKIDSSNELGFIVKQVSSQPDNSFWIGLSRPQTEVPWLWEDGSTFSSNLFQIRTTATQENPSPNCVWIHVSVIYDQLCSVPSYSICEKKFM
glycan array binding signal (z-score) (Neu5Ac(a2-3)GalNAc): -0.548
glycan array binding signal (z-score) [1]: -0.416
glycan array binding signal (z-score) [2]: 0.848
glycan array binding signal (z-score) [3]: -0.076
glycan array binding signal (z-score) [4]: 0.023
glycan array binding signal (z-score) [5]: -0.016
glycan array binding signal (z-score) (Neu5Ac(a2-6)Gal): -0.57
glycan array binding signal (z-score) [6]: -0.564
glycan array binding signal (z-score) (Neu5Ac(a2-6)Gal(b1-4)Glc): -0.438
glycan array binding signal (z-score) [7]: -0.268
glycan array binding signal (z-score) [8]: -0.293
glycan array binding signal (z-score) [9]: -0.577
glycan array binding signal (z-score) [10]: -0.4
glycan array binding signal (z-score) [11]: -0.629
glycan array binding signal (z-score) [12]: -0.427
glycan array binding signal (z-score) [13]: -0.526
glycan array binding signal (z-score) [14]: -0.147
glycan array binding signal (z-score) [15]: -0.476
glycan array binding signal (z-score) [16]: 0.007
glycan array binding signal (z-score) [17]: -0.639
glycan array binding signal (z-score) [18]: -0.561
glycan array binding signal (z-score) [19]: -0.488
glycan array binding signal (z-score) [20]: -0.648
glycan array binding signal (z-score) [21]: 1.06
glycan array binding signal (z-score) [22]: 0.743
glycan array binding signal (z-score) [23]: -0.617
glycan array binding signal (z-score) [24]: -0.26
glycan array binding signal (z-score) [25]: -0.163
glycan array binding signal (z-score) [26]: -0.284
glycan array binding signal (z-score) [27]: -0.45
glycan array binding signal (z-score) [28]: 0.383
glycan array binding signal (z-score) [29]: -0.203
glycan array binding signal (z-score) [30]: -0.459
glycan array binding signal (z-score) [31]: -0.582
glycan array binding signal (z-score) [32]: -0.536
glycan array binding signal (z-score) [33]: -0.215
glycan array binding signal (z-score) [34]: -0.643
glycan array binding signal (z-score) [35]: -0.507
glycan array binding signal (z-score) [36]: -0.275
glycan array binding signal (z-score) [37]: -0.417
glycan array binding signal (z-score) [38]: -0.118
glycan array binding signal (z-score) (Neu5Ac(a2-6)GalNAc): 2.14
glycan array binding signal (z-score) [39]: 1.36
glycan array binding signal (z-score) [40]: 0.317
glycan array binding signal (z-score) [41]: -0.518
